# Whole data set: some 33,000 sequences, median “E-score (-0.5 to 0.5)” near -0.021, cut for the highest 2% near 0.32. This is one part of the list.
# Target: T1, Zap1 (UniProt P47043)
# T1 sequence: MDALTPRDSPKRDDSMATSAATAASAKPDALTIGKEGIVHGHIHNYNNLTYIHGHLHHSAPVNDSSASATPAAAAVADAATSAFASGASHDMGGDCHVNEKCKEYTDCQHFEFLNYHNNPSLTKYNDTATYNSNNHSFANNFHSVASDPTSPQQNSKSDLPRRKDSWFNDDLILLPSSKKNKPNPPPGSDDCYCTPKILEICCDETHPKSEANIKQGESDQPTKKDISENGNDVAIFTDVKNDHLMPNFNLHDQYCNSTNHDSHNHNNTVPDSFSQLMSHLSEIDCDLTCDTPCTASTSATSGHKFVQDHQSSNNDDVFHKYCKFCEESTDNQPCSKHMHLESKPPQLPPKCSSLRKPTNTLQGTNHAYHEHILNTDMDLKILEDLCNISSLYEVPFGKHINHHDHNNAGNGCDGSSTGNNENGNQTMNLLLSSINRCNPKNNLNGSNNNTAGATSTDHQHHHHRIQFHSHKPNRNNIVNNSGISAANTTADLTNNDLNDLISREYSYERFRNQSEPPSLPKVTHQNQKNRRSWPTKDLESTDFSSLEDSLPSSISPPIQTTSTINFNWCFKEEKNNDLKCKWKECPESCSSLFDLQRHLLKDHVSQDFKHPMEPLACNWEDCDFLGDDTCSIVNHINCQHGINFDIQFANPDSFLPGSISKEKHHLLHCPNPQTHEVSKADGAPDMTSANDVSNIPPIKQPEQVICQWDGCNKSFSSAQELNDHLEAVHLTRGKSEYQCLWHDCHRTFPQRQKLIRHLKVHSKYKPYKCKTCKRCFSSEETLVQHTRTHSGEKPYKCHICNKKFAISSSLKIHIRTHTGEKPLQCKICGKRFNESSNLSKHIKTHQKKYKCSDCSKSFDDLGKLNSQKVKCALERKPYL
# Assay: PBM E-score (8-mer binding enrichment) (E-score (-0.5 to 0.5)); higher = stronger / more preferred TF binding; most listed sequences are background and not binding sites
# Settings: protein concentration: 200 nM; construct: GST-full length
# Protocol: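 Universal 'all 10-mer' protein binding microarrays (Agilent AMADID 015681) probed with GST-tagged S. cerevisiae TFs (full-length or DBD) made by in vitro transcription/translation (PURExpress), about 100-200 nM. Bound TF was detected with fluorescent anti-GST. Each ungapped 8-mer (which stands for itself and its reverse complement) is scored by the PBM enrichment score (E-score), a modified Wilcoxon-Mann-Whitney statistic from -0.5 to +0.5, computed with the Universal PBM Analysis Suite. Scale: above 0.35 generally sequence-specific binding.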
row,Sequence,PBM E-score
1,GGGCCGTA,-0.0203
2,CGTCTTAG,-0.141
3,ATAGCAGG,0.0205
4,AACTCAGG,-0.0157
5,CGCTGTAG,-0.0306
6,CGCCTTGC,-0.135
7,TGACGTAA,-0.0854
8,AGGATTTG,-0.103
9,ATCCCTGC,-0.201
10,AATAATTC,-0.0371
11,AGGACTAC,-0.186
12,AAATTAGG,0.162
13,ACCCAGAA,0.262
14,GCCTCTGA,-0.16
15,CAGGCACC,-0.161
16,AAGAGTCC,-0.0923
17,ATTTAGGA,0.104
18,ATAATGAA,0.187
19,CTCGTCAG,-0.0506
20,CCGCTCTC,-0.112
21,ACATGCCA,0.0303
22,GGGGGAGA,-0.245

row,Sequence,PBM E-score
1,AGGACGGC,-0.231
2,AGCCGCGG,0.175
3,ATTCGACA,-0.0415
4,ACACCTTC,0.0347
5,GCTAGGCA,-0.168
6,AGGAAGGA,-0.273
7,AACTGAAC,-0.00072
8,CGGGTTCC,0.157
9,AACCCTTA,0.457
10,TACAGCAA,-0.00013
11,CCAGCTGA,-0.0768
12,CATAAAAC,0.0957
13,ATATGACA,0.0395
14,CTACCACA,0.16
15,CATGGCGA,-0.0505
16,ATGTTGGG,0.0154
17,CCACTCAA,0.193
18,CCGCCTGC,-0.117
19,GAATTTAA,0.0236
20,GTCGCCAA,0.0851
21,TCACAACA,0.245
22,AGGTACAG,0.0282

row,Sequence,PBM E-score
1,AAGAACTA,0.0816
2,CATCTGTA,-0.157
3,AGTGGCTC,-0.175
4,CACCAACA,0.0503
5,TCGAGTCA,-0.21
6,GATATTGA,-0.0969
7,TAGAAACA,0.228
8,CTACGCAG,-0.225
9,CGTCTGGC,-0.0743
10,ATCGCAGC,-0.0336
11,GCTGTAAA,0.061
12,AAACGGGG,-0.0125
13,ATACACAA,0.108
14,AGGCTCCG,-0.128
15,CCGGCAGC,-0.137
16,CTTAATCA,0.173
17,AGCAGCGA,-0.068
18,AACGTTGC,-0.161
19,ACGACATA,-0.0747
20,GCAAACCC,0.149
21,AAACGGGT,0.233
22,GTAAGGGA,0.0149

row,Sequence,PBM E-score
1,CACCGCCC,0.127
2,CTTGCTGA,-0.0224
3,CCTATAGG,0.346
4,ACACGGAT,0.0123
5,CGAGTGTA,-0.162
6,CGCGAGTC,0.0811
7,CTAGGACA,-0.156
8,AAGCTTCA,0.0817
9,ACAATACT,0.172
10,TGCATAAA,0.125
11,AGGACCTC,0.154
12,GGTTGTCA,0.303
13,AAGACTCT,-0.0702
14,ACGGGGTA,0.164
15,ACTTCGTC,-0.132
16,AGTTCCGA,0.0267
17,GCATTTGA,0.0882
18,CCGACTTC,-0.202
19,AAAATTCC,-0.0327
20,GTTTCCCA,0.0656

# — the supplement of paper PMC3334620
